Source: PubChem BioAssay (NCI)
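How tested: cells in 96-well plates exposed to compound for 48 hours at five concentrations. GI50: concentration for 50% inhibition of growth. TGI is the concentration that stops growth completely.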

Test system: NCI-H322M lung
Experiment: NCI-60 cell line screen, 48 h

In the case of `O=C(CCCCCCNC(=O)C(O)(O)C(F)(F)F)Nc1nc2ccccc2s1`, the GI50 is reported as 5.06 µM and the TGI is reported as > 29.8 µM.
